# Measurements published in the supplement of paper PMC10369915.
# This is one part of the list. Cut-off read from the data, not from the text of the source: active = 3.2 or more and inactive = the rest. Most of these values are background signal.
# B1: BLNK_HUMAN_189 (peptide)
# chain: VEDNDENYIHPTESS
# B2: ZO2_HUMAN_1118 (peptide)
# chain: AQKHPDIYAVPIKTH
# B3: NegativeControl09_Ala (peptide)
# chain: IVMSRAKANGDSKVN
# B4: NegativeControl03_Phe (peptide)
# chain: FTLRCPCFLLCMCES
# B5: CADH1_HUMAN_753_YA (peptide)
# chain: DDTRDNVYAADEEGG
# B6: NegativeControl01_Phe (peptide)
# chain: GQLTFLNFGFMTHNA
# B7: CA052_HUMAN_132 (peptide)
# chain: AIKWSNIYEDNGDDA
# B8: CADH1_HUMAN_755_YA (peptide)
# chain: TRDNVAAYDEEGGGE
# B9: CAMP1_HUMAN_1537_YA (peptide)
# chain: APDTEEIYKLTGTGP
# B10: NegativeControl07_Ala (peptide)
# chain: FCTVFFNADWLTWPP
# B11: CADH1_HUMAN_753 (peptide)
# chain: DDTRDNVYYYDEEGG
# B12: CANB1_HUMAN_106_YA (peptide)
# chain: ADMDKDGYISNGELF
# B13: ZO2_HUMAN_574 (peptide)
# chain: VREDAVLYLLEIPKG
# B14: CAT_HUMAN_231 (peptide)
# chain: NANGEAVYCKFHYKT
# B15: BCR_HUMAN_554_YA (peptide)
# chain: FFKVPELYEIHKEFA
# B16: NegativeControl12_Phe (peptide)
# chain: TLQQRCFFNPNFTST
# B17: BTK_HUMAN_344_YA (peptide)
# chain: CSTPQSQYALAEKHL
# B18: NegativeControl10_Ala (peptide)
# chain: AGHQDNFAFAIPIGN
# B19: NegativeControl10_Phe (peptide)
# chain: AGHQDNFFFAIPIGN
# B20: NegativeControl04_Ala (peptide)
# chain: SVHDAFEACPEFWDK
# B21: NegativeControl08_Ala (peptide)
# chain: KMAPFATASFWAQCI
# B22: BTK_HUMAN_40 (peptide)
# chain: TVHKLSYYEYDFERG
# B23: NegativeControl07_Phe (peptide)
# chain: FCTVFFNFDWLTWPP
# B24: CADH1_HUMAN_755 (peptide)
# chain: TRDNVYYYDEEGGGE
# B25: BCR_HUMAN_644 (peptide)
# chain: NSLETLLYKPVDRVT
# B26: NegativeControl09_Phe (peptide)
# chain: IVMSRAKFNGDSKVN
# B27: CACNA1C_HUMAN_2217 (peptide)
# chain: ELQDSRVYVSSLGGG
# B28: CANB1_HUMAN_106 (peptide)
# chain: YDMDKDGYISNGELF
# B29: NegativeControl11_Ala (peptide)
# chain: CFSKDKVAGDFFKVC
# B30: BMX_HUMAN_216 (peptide)
# chain: SSTSLAQYDSNSKKI
# B31: BUB3_HUMAN_207 (peptide)
# chain: EGRVAVEYLDPSPEV
# B32: CALM_HUMAN_139 (peptide)
# chain: DGDGQVNYEEFVQMM
# B33: NegativeControl02_Phe (peptide)
# chain: FDFSGWKFDHAAATP
# B34: NegativeControl12_Ala (peptide)
# chain: TLQQRCFANPNFTST
# B35: CASQ1_HUMAN_43 (peptide)
# chain: EGLDFPEYDGVDRVI
# B36: BTK_HUMAN_361 (peptide)
# chain: TIPELINYHQHNSAG
# Target: SHP2 C-SH2 domain E139D
# Test: enrichment score (SH2-bound / input frequency) (ratio); bacterial display of known human phosphotyrosine sites (pTyr-Var adds point mutants) read by sequencing; higher = stronger binding; tyrosines were phosphorylated by kinases first
# Conditions: peptide library: Human pTyr
# 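Note: displayed peptides selected on beads carrying the immobilized SH2 domain, with library peptides lacking any tyrosine serving as negative controls.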
row,Binder,enrichment score
1,B1,inactive: 1.23
2,B2,inactive: 2.1
3,B3,inactive: 0.713
4,B4,inactive: 2.25
5,B5,inactive: 1.02
6,B6,inactive: 2.09
7,B7,inactive: 1.05
8,B8,inactive: 1.18
9,B9,inactive: 0.815
10,B10,inactive: 2.26
11,B11,inactive: 1.3
12,B12,inactive: 0.623
13,B13,inactive: 1.37
14,B14,inactive: 1.71
15,B15,inactive: 1.67
16,B16,inactive: 0.978
17,B17,inactive: 1.06
18,B18,inactive: 0.74

row,Binder,enrichment score
1,B19,inactive: 0.802
2,B20,inactive: 1.05
3,B21,inactive: 1.42
4,B22,inactive: 2.65
5,B23,inactive: 2.91
6,B24,inactive: 0.884
7,B25,inactive: 0.614
8,B26,inactive: 0.741
9,B27,inactive: 0.576
10,B28,inactive: 0.628
11,B29,inactive: 0.964
12,B30,inactive: 1.02
13,B31,inactive: 1.04
14,B32,inactive: 0.89
15,B33,inactive: 0.989
16,B34,inactive: 1.07
17,B35,inactive: 0.714
18,B36,inactive: 0.919

# Target: SHP2 C-SH2 domain wild-type
# Test: as above
# Conditions: peptide library: Human pTyr
row,Binder,enrichment score
1,B1,inactive: 1.6
2,B2,inactive: 1.09
3,B3,inactive: 0.607
4,B4,inactive: 2.33
5,B5,inactive: 1.08
6,B6,inactive: 2.19
7,B7,inactive: 1.12
8,B8,inactive: 0.937
9,B9,inactive: 0.485
10,B10,inactive: 2.07
11,B11,inactive: 1.05
12,B12,inactive: 0.602
13,B13,inactive: 1.32
14,B14,inactive: 1.86
15,B15,inactive: 1.28
16,B16,inactive: 0.986
17,B17,inactive: 1.07
18,B18,inactive: 0.688

row,Binder,enrichment score
1,B19,inactive: 1.03
2,B20,inactive: 0.777
3,B21,inactive: 1.29
4,B22,inactive: 1.25
5,B23,inactive: 2.8
6,B24,inactive: 1.25
7,B25,inactive: 0.753
8,B26,inactive: 0.601
9,B27,inactive: 0.492
10,B28,inactive: 0.476
11,B29,inactive: 0.985
12,B30,inactive: 0.901
13,B31,inactive: 0.785
14,B32,inactive: 0.869
15,B33,inactive: 0.987
16,B34,inactive: 1.07
17,B35,inactive: 0.615
18,B36,inactive: 0.852

# Target: SHP2 N-SH2 domain L43F
# Test: as above
# Conditions: peptide library: Human pTyr
row,Binder,enrichment score
1,B1,inactive: 1.03
2,B2,inactive: 1.24
3,B3,inactive: 0.628
4,B4,inactive: 2.28
5,B5,inactive: 1.19
6,B6,inactive: 2.18
7,B7,inactive: 1.28
8,B8,inactive: 0.989
9,B9,inactive: 0.554
10,B10,inactive: 2.11
11,B11,inactive: 1.31
12,B12,inactive: 0.708
13,B13,inactive: 1.16
14,B14,inactive: 1.3
15,B15,inactive: 1.48
16,B16,inactive: 1.19
17,B17,inactive: 1.02
18,B18,inactive: 1.12

row,Binder,enrichment score
1,B19,inactive: 1.24
2,B20,inactive: 0.939
3,B21,inactive: 1.3
4,B22,inactive: 0.996
5,B23,inactive: 3.11
6,B24,inactive: 0.669
7,B25,inactive: 0.641
8,B26,inactive: 0.718
9,B27,inactive: 0.694
10,B28,inactive: 0.751
11,B29,inactive: 1.07
12,B30,inactive: 0.924
13,B31,inactive: 0.731
14,B32,inactive: 0.856
15,B33,inactive: 0.844
16,B34,inactive: 1.17
17,B35,inactive: 0.653
18,B36,inactive: 0.541

# Target: SHP2 N-SH2 domain T42A
# Test: as above
# Conditions: peptide library: Human pTyr
row,Binder,enrichment score
1,B1,inactive: 0.943
2,B2,inactive: 1.33
3,B3,inactive: 0.613
4,B4,inactive: 2.27
5,B5,inactive: 1.25
6,B6,inactive: 1.28
7,B7,inactive: 1.21
8,B8,inactive: 0.708
9,B9,inactive: 0.67
10,B10,inactive: 2.07
11,B11,inactive: 1.22
12,B12,inactive: 0.619
13,B13,inactive: 1.35
14,B14,inactive: 1.47
15,B15,inactive: 1.29
16,B16,inactive: 1.44
17,B17,inactive: 1.03
18,B18,inactive: 0.751

row,Binder,enrichment score
1,B19,inactive: 1.38
2,B20,inactive: 1
3,B21,inactive: 1.34
4,B22,inactive: 1.08
5,B23,inactive: 2.33
6,B24,inactive: 1.01
7,B25,inactive: 0.744
8,B26,inactive: 0.667
9,B27,inactive: 0.556
10,B28,inactive: 0.589
11,B29,inactive: 0.722
12,B30,inactive: 0.83
13,B31,inactive: 0.912
14,B32,inactive: 0.717
15,B33,inactive: 1.18
16,B34,inactive: 0.964
17,B35,inactive: 0.781
18,B36,inactive: 0.498

# Target: SHP2 N-SH2 domain T52S
# Test: as above
# Conditions: peptide library: Human pTyr
row,Binder,enrichment score
1,B1,inactive: 1.67
2,B2,inactive: 1.4
3,B3,inactive: 0.67
4,B4,inactive: 2.37
5,B5,inactive: 1.27
6,B6,inactive: 1.98
7,B7,inactive: 1.24
8,B8,inactive: 0.836
9,B9,inactive: 0.823
10,B10,inactive: 2.42
11,B11,inactive: 1.34
12,B12,inactive: 0.63
13,B13,inactive: 1.37
14,B14,inactive: 1.61
15,B15,inactive: 1.22
16,B16,inactive: 1.24
17,B17,inactive: 1.38
18,B18,inactive: 1.23

row,Binder,enrichment score
1,B19,inactive: 0.981
2,B20,inactive: 1.1
3,B21,inactive: 1.4
4,B22,inactive: 1.13
5,B23,active: 3.35
6,B24,inactive: 0.598
7,B25,inactive: 0.596
8,B26,inactive: 0.636
9,B27,inactive: 0.533
10,B28,inactive: 0.704
11,B29,inactive: 0.863
12,B30,inactive: 0.506
13,B31,inactive: 0.839
14,B32,inactive: 0.79
15,B33,inactive: 0.982
16,B34,inactive: 1.39
17,B35,inactive: 0.705
18,B36,inactive: 0.575

# Target: SHP2 N-SH2 domain wild-type
# Test: as above
# Conditions: peptide library: Human pTyr
row,Binder,enrichment score
1,B1,inactive: 1.27
2,B2,inactive: 1.72
3,B3,inactive: 0.673
4,B4,inactive: 3.12
5,B5,inactive: 1.18
6,B6,inactive: 1.88
7,B7,inactive: 1.55
8,B8,inactive: 0.862
9,B9,inactive: 0.651
10,B10,inactive: 2.68
11,B11,inactive: 1.63
12,B12,inactive: 0.836
13,B13,inactive: 1.5
14,B14,inactive: 1.73
15,B15,inactive: 1.49
16,B16,inactive: 1.68
17,B17,inactive: 1.09
18,B18,inactive: 0.871

row,Binder,enrichment score
1,B19,inactive: 1.51
2,B20,inactive: 0.951
3,B21,inactive: 1.56
4,B22,inactive: 1.24
5,B23,inactive: 3.08
6,B24,inactive: 0.629
7,B25,inactive: 0.717
8,B26,inactive: 0.669
9,B27,inactive: 0.608
10,B28,inactive: 0.662
11,B29,inactive: 0.87
12,B30,inactive: 0.891
13,B31,inactive: 0.816
14,B32,inactive: 0.803
15,B33,inactive: 0.923
16,B34,inactive: 1.34
17,B35,inactive: 0.929
18,B36,inactive: 0.83
